From the RNAGym collection of RNA variant scans (doi:10.7554/elife.90254)
Read counts are not given, so values of variants with three or more changes are uncertain.

B1: LINE1-mini (parent)
chain: GGCAGAGCUCAACACAGCGUGGCAAAGUGGCUGUGGCUAGACUGCC

Variants of: B1
Assay: self-cleavage, relative activity (ratio to wild type); higher = more cleavage; in vitro, sequencing; the parent is a self-cleaving ribozyme

With GGCAGAGCUCCACACAGCGUGAAAAAGUCGCUGUGGCUAGACUGCC [A11C G22A C23A G29C] as the variant, how does the self-cleavage read?
The self-cleavage was 0.02.

Which self-cleavage does the source give for GGCAGAGCUCCACACAGCGUGACAAAUUGGCUGUGGGUAGACUGCC [A11C G22A G27U C37G] here?
The self-cleavage was 0.

Which self-cleavage does the source give for GGCAGAGCUCCACACAGCGUGACAAAGUGGCUGUGGCUAUACUGCC [A11C G22A G40U] here?
The self-cleavage was 0.01.

For GGCAGAGCUCCACACAGCGUGACAAAGUGGCUGUGGCUAGACGGCC [A11C G22A U43G], which self-cleavage is on record?
The self-cleavage was 0.

Which self-cleavage does the source give for GGCAGAGCUCCACACAGCGUGCCAAAGAGGCUCUGGCUAGACUGCC [A11C G22C U28A G33C] here?
Its self-cleavage is 0.02.

Which self-cleavage does the source give for GGCAGAGCUCCACACAGCGUGUCAAAGUGGCUGUGGCUUGACUGCC [A11C G22U A39U] here?
Its self-cleavage is 0.04.

Which self-cleavage does the source give for GGCAGAGCUCCACACAGCGUGUUAAAGUGGCUGUGGCAAUACUGCU [A11C G22U C23U U38A G40U C46U] here?
Its self-cleavage is 0.

For GGCAGAGCUCCACACAGCGUGUCAAAGUGGUUGUGGCUUGACUGCC [A11C G22U C31U A39U], which self-cleavage is on record?
The self-cleavage was 0.01.

Which self-cleavage does the source give for GGCAGAGCUCCACACAGCGUGUCAAAGUGGCUGUGGAUAGACUCCC [A11C G22U C37A G44C] here?
Its self-cleavage is 0.

Which self-cleavage does the source give for GGCAGAGCUCCACACAGCGUGGCAAAAUGGCUGUGGCUAGACUCCC [A11C G27A G44C] here?
The self-cleavage was 0.02.

With GGCAGAGCUCCACACAGCGUGGCAAACUGACUGUGGCUAGACUGCC [A11C G27C G30A] as the variant, how does the self-cleavage read?
Its self-cleavage is 0.06.

For GGCAGAGCUCCACACAGCGUGGCAAAUUGGCUGUGGCUAGACUGAC [A11C G27U C45A], which self-cleavage is on record?
Its self-cleavage is 0.02.

For GGCAGAGCUCCACACAGCGUGGCAAAUUGGCUGUGGCUAGACUCCC [A11C G27U G44C], which self-cleavage is on record?
The self-cleavage was 0.02.

For GGCAGAGCUCCACACAGCGUGGCAAAGUAGCUGUGGCAAAACUGCC [A11C G29A U38A G40A], which self-cleavage is on record?
Its self-cleavage is 0.01.

With GGCAGAGCUCCACACAGCGUGGCAAAGUCUCUGUGGCUAGACUGCC [A11C G29C G30U] as the variant, how does the self-cleavage read?
The self-cleavage was 0.01.

Which self-cleavage does the source give for GGCAGAGCUCCACACAGCGUGGCAAAGUCGCUGUGUCUAGACUGCC [A11C G29C G36U] here?
The self-cleavage was 0.01.

For GGCAGAGCUCCACACAGCGUGGCAAAGUCGCUGAGACUAGAGUGCC [A11C G29C U34A G36A C42G], which self-cleavage is on record?
Its self-cleavage is 0.02.

For GGCAGAGCUCCACACAGCGUGGCAAAGUGACUGUAGCUAGACUGCC [A11C G30A G35A], which self-cleavage is on record?
Its self-cleavage is 0.04.

Which self-cleavage does the source give for GGCAGAGCUCCACACAGCGUGGCAAAGUGACAGUGGCUAGACUGCC [A11C G30A U32A] here?
Its self-cleavage is 0.

For GGCAGAGCUCCACACAGCGUGGCAAAGUGACGGUGGCUAGACUGCC [A11C G30A U32G], which self-cleavage is on record?
The self-cleavage was 0.01.

For GGCAGAGCUCCACACAGCGUGGCAAAGUGCCUGUGGCUAGCCUGCC [A11C G30C A41C], which self-cleavage is on record?
The self-cleavage was 0.

For GGCAGAGCUCCACACAGCGUGGCAAAGUGUCUGUGGCUCGACUGCC [A11C G30U A39C], which self-cleavage is on record?
The self-cleavage was 0.02.

For GGCAGAGCUCCACACAGCGUGGCAAAGUGUUUGUGGCUAGACUGCC [A11C G30U C31U], which self-cleavage is on record?
The self-cleavage was 0.03.

With GGCAGAGCUCCACACAGCGUGGCAAAGUGUCUGUGGCUAGAAUGCC [A11C G30U C42A] as the variant, how does the self-cleavage read?
Its self-cleavage is 0.01.

Which self-cleavage does the source give for GGCAGAGCUCCACACAGCGUGGCAAAGUGGCUAUGCCUAGACUUCC [A11C G33A G36C G44U] here?
The self-cleavage was 0.

With GGCAGAGCUCCACACAGCGUGGCAAAGUGGCUCUGGCUAGACUGCA [A11C G33C C46A] as the variant, how does the self-cleavage read?
The self-cleavage was 0.02.

For GGCAGAGCUCCACACAGCGUGGCAAAGUGGCUCUGGCAAGACUGCC [A11C G33C U38A], which self-cleavage is on record?
Its self-cleavage is 0.03.

Which self-cleavage does the source give for GGCAGAGCUCCACACAGCGUGGCAAAGUGGCUGUCGCUGGACUGCC [A11C G35C A39G] here?
Its self-cleavage is 0.01.

With GGCAGAGCUCCACACAGCGUGGCAAAGUGGCUGUGUCUAGACUGUC [A11C G36U C45U] as the variant, how does the self-cleavage read?
The self-cleavage was 0.01.

For GGCAGAGCUCCACACAGCGUGGCAAAGUGGCUGUGUCUAGACUUCC [A11C G36U G44U], which self-cleavage is on record?
Its self-cleavage is 0.02.

For GGCAGAGCUCCACACAGCGUGGCAAAGUGGCUGUGGCUACUCUGCC [A11C G40C A41U], which self-cleavage is on record?
Its self-cleavage is 0.01.

For GGCAGAGCUCCACACAGCGUGGCAAAGUGGCUGUGGCUACACUGCA [A11C G40C C46A], which self-cleavage is on record?
Its self-cleavage is 0.02.

For GGCAGAGCUCCACACAGCGAGCCAAAUUGGCUGUGGCUAGAAUGCC [A11C U20A G22C G27U C42A], which self-cleavage is on record?
The self-cleavage was 0.

With GGCAGAGCUCCACACAGCGAGGCAAAGUGGCUGUGGCUAGACUCCC [A11C U20A G44C] as the variant, how does the self-cleavage read?
Its self-cleavage is 0.02.

For GGCAGAGCUCCACACAGCGAGGCAAAGUGGCGUUGGCUAGACUGCA [A11C U20A U32G G33U C46A], which self-cleavage is on record?
Its self-cleavage is 0.02.

Which self-cleavage does the source give for GGCAGAGCUCCACACAGCGCCGCAUGGUGGCUGUGGCUAUACUGCC [A11C U20C G21C A25U A26G G40U] here?
The self-cleavage was 0.01.

With GGCAGAGCUCCACACAGCGCGGCAAAGUUGCUGUGGCUAGACUGCC [A11C U20C G29U] as the variant, how does the self-cleavage read?
The self-cleavage was 0.01.

With GGCAGAGCUCCACACAGCGGGGCAAAGUGGGUGCGGCUAGACUUCC [A11C U20G C31G U34C G44U] as the variant, how does the self-cleavage read?
Its self-cleavage is 0.

Which self-cleavage does the source give for GGCAGAGCUCCACACAGCGGGGCAAAGUGGCUAUGGCUAGACUGCC [A11C U20G G33A] here?
The self-cleavage was 0.01.

With GGCAGAGCUCCACACAGCGUGGCAAAGCGGCUGGGGCUAGUCUUCC [A11C U28C U34G A41U G44U] as the variant, how does the self-cleavage read?
Its self-cleavage is 0.

Which self-cleavage does the source give for GGCAGAGCUCCACACAGCGUGGCAAAGUGGCAGUGGCUAGACUGCG [A11C U32A C46G] here?
Its self-cleavage is 0.01.

For GGCAGAGCUCCACACAGCGUGGCAAAGUGGCAGUGGCUAGACCGCC [A11C U32A U43C], which self-cleavage is on record?
Its self-cleavage is 0.05.

With GGCAGAGCUCCACACAGCGUGGCAAAGUGGCCGUGGCUAGUCGGCC [A11C U32C A41U U43G] as the variant, how does the self-cleavage read?
Its self-cleavage is 0.01.

With GGCAGAGCUCCACACAGCGUGGCAAAGUGGCGGUGGCUGGACUGCC [A11C U32G A39G] as the variant, how does the self-cleavage read?
Its self-cleavage is 0.

With GGCAGAGCUCCACACAGCGUGGCAAAGUGGCUGAGGCUAGACUGGC [A11C U34A C45G] as the variant, how does the self-cleavage read?
The self-cleavage was 0.01.

With GGCAGAGCUCCACACAGCGUGGCAAAGUGGCUGAGGCUAGACUGCA [A11C U34A C46A] as the variant, how does the self-cleavage read?
Its self-cleavage is 0.03.

Which self-cleavage does the source give for GGCAGAGCUCCACACAGCGUGGCAAAGUGGCUGCGGCUUGACUGCC [A11C U34C A39U] here?
The self-cleavage was 0.06.

For GGCAGAGCUCCACACAGCGUGGCAAAGUGGCUGCCGCUAGACUGCU [A11C U34C G35C C46U], which self-cleavage is on record?
The self-cleavage was 0.

For GGCAGAGCUCCACACAGCGUGGCAAAGUGGCUGCGUAUAGACAGUC [A11C U34C G36U C37A U43A C45U], which self-cleavage is on record?
The self-cleavage was 0.

Which self-cleavage does the source give for GGCAGAGCUCCACACAGCGUGGCAAAGUGGCUGUGGCCAAACUGCC [A11C U38C G40A] here?
The self-cleavage was 0.

For GGCAGAGCUCCACACAGCGUGGCAAAGUGGCUGUGGCCAAACUCCC [A11C U38C G40A G44C], which self-cleavage is on record?
Its self-cleavage is 0.

For GGCAGAGCUCCACACAGCGUGGCAAAGUGGCUGUGGCUAGACCUCC [A11C U43C G44U], which self-cleavage is on record?
The self-cleavage was 0.04.

Which self-cleavage does the source give for GGCAGAGCUCGCCACCGCGUGGCAAAGUGACCGUGGCUACACUGCC [A11G A12C A16C G30A U32C G40C] here?
The self-cleavage was 0.01.

For GGCAGAGCUCGCCACAGCGUGGCACAGUGGCUGUGGCUAGACUGUC [A11G A12C A25C C45U], which self-cleavage is on record?
Its self-cleavage is 0.02.

For GGCAGAGCUCGCCACAGCGUCGCAAAGUGGCUGUGGCAAGACUGCC [A11G A12C G21C U38A], which self-cleavage is on record?
Its self-cleavage is 0.02.

With GGCAGAGCUCGCCACAGCGUGGCAAAGUGGCUGUGCCUUGACUGCC [A11G A12C G36C A39U] as the variant, how does the self-cleavage read?
Its self-cleavage is 0.
